Measurements: PubChem BioAssay AID485313 (National Center for Advancing Translational Sciences (NCATS), 2010)
The whole screen tested about 320,000 compounds, of which about 7,600 (2.4%) were called active. The inconclusive results got no clear call from the source; some entries with a clear call stand among them for comparison. Calls come from the whole dose curve; as a rule, active = well fitted activation curve with a large enough effect; inconclusive = small, poorly fitted or top-dose-only effect; inactive = no such curve, though single readings can be large or run the other way. No potency is given beside an inconclusive call; the fits are too rough.

experiment: qHTS Assay for NPC1 Promoter Activators; details: Huh7 NPC1 promoter luciferase reporter, 24 h; series mostly up to 9.22 µM; activation: at the top concentration; note: nearly all actives have a fitted effect of over 60% in size;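 for activation: reporter is driven by a mutant NPC1 promoter; % of control where 0% means no effect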
In short: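 Readout is luciferase luminescence, reflecting NPC1 promoter activation in stably transfected Huh7 cells after 24 h compound exposure at 37 °C in reduced-serum medium with 10% FBS.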
Potency is the fitted concentration of half-maximal effect; tags give direction and shape of the fitted curve.

Row | Structure (SMILES) | Potency | activation
1 | O=C(N/N=C/c1ccc2ncccc2c1)c1ccco1 | inconclusive [activator, full curve, poor fit] | 
2 | Cc1cc(C(=O)OCC(=O)NCCc2ccccc2)c2ccccc2n1 |  | inactive: 1.23%
3 | Cc1ccc(/C=N/NC(=O)Cc2ccc(O)cc2)s1 |  | inactive: 15.2%
4 | CCOc1ccc(-n2nc3ccc(NC(=O)CC)cc3n2)cc1 | inconclusive [activator, partial curve] | 
5 | Cc1ccc(Cn2ccc(-c3cnc(-c4ccccc4)s3)n2)cc1 | inconclusive [activator, partial curve] | 
6 | O=c1n(Cc2ccccc2)nc2n1-c1ccccc1SC2 | inconclusive [activator, single point] | 
7 | CC(=O)c1c(C)[nH]c(C(=O)NCCC2=CCCCC2)c1C | active: 3.55 µM | 
8 | COc1ccc(N/C(C)=C/C(=O)c2ccccc2)cc1 | inconclusive [activator, partial curve] | 
9 | CN(C)c1ccc(C(=O)OCC(=O)N2CCCCCC2)cc1 | inconclusive [activator, partial curve] | 
10 | Cc1ccc(-c2noc(-c3ccccc3F)n2)cc1 | inconclusive [activator, partial curve] | 
11 | CCCCC(C(=O)O)C(C)CC(=O)Nc1nncs1 (configuration not stated) |  | inactive: -1.12%
12 | CCc1ccc(-c2nc(-c3ccncc3)no2)cc1 | active: 0.355 µM | 
13 | CC(C)(C)OC(=O)N1CCC(c2c(C(=O)NC3CC3)cnn2-c2ccc(Cl)cc2)CC1 |  | inactive: -0.93%
14 | O=C(CNC(=O)c1ccccc1F)N/N=C/c1cccs1 | inconclusive [activator, single point] | 
15 | CC1CCc2c(C(=O)NCc3ccccn3)csc2C1 (configuration not stated) | inconclusive [activator, single point] | 
16 | Cc1cc(C)c2oc(-c3cccc(N)c3)nc2c1 | active: 3.55 µM | 
17 | COc1ccc(CNC(=O)c2ccc(-c3ccccc3)cc2)cc1 | inconclusive [activator, partial curve] | 
18 | CN(C(=O)c1cccc(COc2ccc(Cl)cc2Cl)c1)c1ccccc1 | active: 0.631 µM | 
19 | Cc1ccccc1OCCN1C(=O)C(=O)c2cccc(C)c21 |  | inactive: 0.123%
20 | CCn1c(COc2ccc(C)cc2)nc2ccccc21 | inconclusive [activator, partial curve] | 
21 | Cc1c(NC(=O)c2ccc(C(C)(C)C)cc2)cccc1[N+](=O)[O-] | inconclusive [activator, partial curve] | 

Row | Structure (SMILES) | Potency | activation
22 | COc1ccc2oc(=O)c(-c3nc(C)cs3)cc2c1 | inconclusive [activator, single point] | 
23 | CCn1cnc2sc(C(=O)Oc3ccc(Br)cc3)c(C)c2c1=O | inconclusive [activator, single point] | 
24 | Nc1c(C(=O)C2CC2)sc2nc3c(cc12)CCC3 | active: 2.51 µM | 
25 | O=C(NC(=S)Nc1ccc(F)cc1)C1CCCCC1 | inconclusive [activator, partial curve] | 
26 | CC1CCC/C(=N\NS(=O)(=O)c2ccccc2)C1 (configuration not stated) |  | inactive: -1.41%
27 | O=C(/C=C/c1ccccc1Cl)Nc1ccccc1 | inconclusive [activator, partial curve] | 
28 | O=C(c1cc(-c2ccc(Cl)cc2)nc2ccccc12)N1CCOCC1 |  | inactive: 1.06%
29 | CCCOc1ccc(-c2nc(N)n[nH]2)cc1 | inconclusive [activator, partial curve] | 
30 | O=C(COc1ccccc1)NCCSc1ccccc1 | inconclusive [activator, partial curve] | 
31 | NNc1nc2cc3c(cc2s1)OCCO3 | active: 1.58 µM | 
32 | Cc1ccc(C(C(=O)NCc2ccc(F)cc2)N(Cc2ccco2)C(=O)c2snc(C(N)=O)c2N)o1 (configuration not stated) |  | inactive: 0.415%
33 | Cc1ccc(NC(=O)CCC(=O)c2cccs2)c(Br)c1 | inconclusive [activator, single point] | 
34 | O=C(COc1ccccc1)Nc1ccc(N2CCCCC2)cc1 | inconclusive [activator, partial curve] | 
35 | CN(C)S(=O)(=O)c1cccc(C(=O)NCCc2ccccc2)c1 | active: 0.794 µM | 
36 | c1ccc2sc(NN=C3CCCCCC3)nc2c1 | active: 0.355 µM | 
37 | O=C(CNc1cccc(F)c1)N1CCc2ccccc2C1 | active: 3.16 µM | 
38 | Cc1cc(C(=O)Nc2ccc(N3CCOCC3)c(Cl)c2)c(C)o1 | inconclusive [activator, partial curve] | 
39 | Cc1csc(NC(=O)CSc2nnc(-c3ccccc3)o2)n1 | active: 3.16 µM | 
40 | COc1cc(-c2nnc(CSc3nnc(N)s3)o2)cc(OC)c1OC |  | inactive: -1.59%
41 | COc1cccc2oc(-c3ccco3)cc(=O)c12 | inconclusive [activator, single point] | 
42 | COc1ccc(CNC(=O)Cn2nnc(-c3ccc(NC(=O)C4CCCCC4)cc3)n2)cc1 | inconclusive [activator, single point] | 

Row | Structure (SMILES) | Potency | activation
43 | O=[N+]([O-])c1nn(-c2ccc3c(c2)OCCO3)n(O)c1=NCc1ccccc1Cl | inconclusive [activator, single point] | 
44 | COc1cccc2cc(C(N)=O)/c(=N\NC(=O)c3ccccc3)oc12 | active: 2.82 µM | 
45 | Nc1ccc(Cc2nc3cc4ccccc4cc3[nH]2)cc1 | inconclusive [activator, single point] | 
46 | O=C(NCCSc1ncc(-c2ccccc2)[nH]1)c1ccco1 |  | inactive: 15.1%
47 | O=C(CSc1nccc(=O)[nH]1)Nc1ccc2c(c1)OCCO2 | active: 2.24 µM | 
48 | CC(CN1CCOCC1)OC(=O)c1ccc2c(c1)OCCO2 (configuration not stated) | inconclusive [activator, partial curve] | 
49 | Cc1ccn2c(c1)nc(=S)n2C(=O)c1ccccc1 | active: 0.398 µM | 
50 | CC1(C)Cc2nc3scc(NC(=O)c4ccccc4)c3cc2CO1 |  | inactive: -3.47%
51 | O=C1CC(N2CCN(c3ccc(F)cc3)CC2)C(=O)N1Cc1cccs1 (configuration not stated) |  | inactive: 0.273%
52 | COc1cc(/C=N/Nc2ccccc2)ccc1O |  | inactive: 4.17%
53 | O=C(O)c1cc([N+](=O)[O-])ccc1NCCCc1ccccc1 | inconclusive [activator, partial curve] | 
54 | Cc1ccc(OCCn2nnc3ccccc32)cc1C | active: 2.51 µM | 
55 | c1ccc2oc(NC3=NCN(C4CCCCC4)CN3)nc2c1 | active: 2.51 µM | 
56 | ClC(Cl)(Cl)c1nc(N/N=C/c2ccncc2)c2ccccc2n1 |  | inactive: -3.26%
57 | Cn1c2ccsc2c2cnn(Cc3ccc(F)cc3)c(=O)c21 |  | inactive: -1.9%
58 | COc1ccc(CCNc2ncnc3c2c(C)c(C)n3CCO)cc1OC |  | inactive: -16%
59 | COc1ccccc1NC(=O)COc1ccc2c(c1)OCO2 | inconclusive [activator, partial curve] | 
60 | O=C(CN1C(=O)C(=O)N(C2CCCC2)C1=O)Nc1ccc(Cl)cc1C(F)(F)F |  | inactive: -3.92%
61 | Cc1[nH]c2ccc(C(=O)NC3CCC(C)CC3)cc2c1C (configuration not stated) | inconclusive [activator, single point] | 
62 | O=C(N/N=C/c1ccc([N+](=O)[O-])o1)c1cc(-c2ccc(-c3ccccc3)cc2)nc2ccccc12 | inconclusive [activator, full curve] | 
63 | CCC(=O)Nc1cccc(-c2cc3ccccc3oc2=O)c1 | inconclusive [activator, single point] | 

Row | Structure (SMILES) | Potency | activation
64 | COc1cccc(-c2noc(C3CCCN(C(=O)c4ccccc4OC)C3)n2)c1 (configuration not stated) | inconclusive [activator, single point] | 
65 | c1ccc(Cn2c(-c3ccco3)nc3nc4ccccc4nc32)cc1 | active: 3.55 µM | 
66 | COc1ccc(/C=C/C(=O)Nc2cccc(S(=O)(=O)NC3=NCCCCC3)c2)cc1 | inconclusive [activator, partial curve] | 
67 | O=C(CSc1nnc(-c2ccc(Cl)s2)o1)N1CCOCC1 | inconclusive [activator, partial curve, poor fit] | 
68 | Oc1ccccc1-c1cc(-c2ccc(F)cc2)n[nH]1 | inconclusive [activator, single point] | 
69 | Cc1ccc(-c2cc(-c3ccc(F)cc3)n[nH]2)c(O)c1 | inconclusive [activator, single point] | 
70 | CCC(Sc1nnnn1C)C(=O)Nc1ccc(C(C)=O)cc1 (configuration not stated) |  | inactive: 22.6%
71 | O=C(CN1CCCCC1)Nc1nc(-c2ccc(F)c(F)c2)cs1 | inconclusive [activator, single point] | 
72 | C[n+]1ccn(CC(=O)c2cc(C(C)(C)C)c(O)c(C(C)(C)C)c2)c1 |  | inactive: -1.1%
73 | Cc1ccc(-c2nc3cc(C)ccc3o2)cc1 | inconclusive [activator, full curve] | 
74 | Clc1cnc(N/N=C/c2ccco2)c(Cl)c1 | active: 1.41 µM | 
75 | CN(Cc1nc(-c2cccs2)no1)CC1COCCO1 (configuration not stated) | inconclusive [activator, single point] | 
76 | COC(=O)c1ccc(NC(=O)Nc2ccc(F)cc2)cc1 | inconclusive [activator, partial curve] | 
77 | CCC(=O)c1ccc(N2CCN(C(=O)c3cccs3)CC2)c(F)c1 | inconclusive [activator, partial curve] | 
78 | CC(C)NC(=O)c1ccc(-n2nc(C(F)(F)F)c3c2CCCC3)cc1 |  | inactive: 0.266%
79 | COc1ccc(N=c2sc3ccccc3n2C)cc1 | active: 2.51 µM | 
80 | CCC(CC)C(=O)NCCc1cc2ccc(C)cc2[nH]c1=O |  | inactive: -1.49%
81 | COc1ccc(NC(=O)C2COc3ccccc3O2)cc1 (configuration not stated) | active: 2.82 µM | 
82 | CCOc1ccc2c(=O)c(Oc3ccccc3OCC)coc2c1 | inconclusive [activator, partial curve] | 
